Reference: the supplement of paper PMC10126150
Sequences with one replicate were seen in a single cluster, so their values are uncertain.

Test system: ATP
Assay: switch fluorescence ratio, 500 uM ATP over buffer (Cy3 cluster intensity, sum of 5 cycles each) (fold (ratio)); higher = stronger signal-on switching upon ATP binding; sequences stand for … in TCGTCGGCAGCGTCAGATGTGTATAAGAGACAGTTTTTTTTTTTTTTTTTTTTTTTTT…TC
Settings: aptamer strand: ATP DNA aptamer (quencher-CACCTGGGGGAGTATTGCGGAGGAAGG + anchor), 100 nM annealed; ATP concentration: 500 uM; one replicate
Procedure, shortened: (§1)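 The fluorescence ratio divides summed target-cycle Cy3 intensity by summed buffer-cycle Cy3 intensity for each cluster and is averaged per switch-domain sequence. Cy3-labelled switching-strand clusters on a modified Illumina MiSeq flow-cell were annealed to 100 nM quencher-labelled ATP aptamer, then imaged in selection buffer and again after 15 min with 500 uM ATP at 22 °C. Five such cycles were run, with NaOH stripping and re-annealing between them, and clusters outside 100-1000 RFU were excluded.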
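Note: ATP exposure 15 min at 22 °C before imaging.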

Row | Sequence | switch fluorescence ratio
1 | GATTCAGAAA | 0.977
2 | AGCACCTAAA | 0.995
3 | TAAAATCCGA | 1.01
4 | GGTGAGCAG | 0.986
5 | TCGTAGATCC | 0.981
6 | GTAATTCAAT | 1.02
7 | TGGTAGCTGG | 1
8 | CAAAGAATTG | 0.996
9 | TAAAGTGCA | 0.961
10 | TCATAGGCAA | 1.95
11 | CGTTTGCTAG | 0.98
12 | AGGCACGGTA | 1.06
13 | CTGGGTCTTA | 0.952
14 | GGCTTTGATG | 0.987
15 | TGCGAAAAGC | 1
16 | TTGTGAGGCC | 0.98
17 | GGAGAGGGAA | 0.993
18 | GTTGTGGATT | 0.993
19 | CAAATGTGGC | 0.994
20 | TGTGGTATGT | 0.999
21 | AGACTCCCAC | 1.93
22 | GCCAAAGTCA | 0.993
23 | ATTCAGTGAC | 1.05
24 | AATGCTTTCA | 1.03

Row | Sequence | switch fluorescence ratio
25 | CGCTAGCCCT | 1.04
26 | TCAGCCCTA | 0.984
27 | GAAGAGGGT | 0.974
28 | TCTTCTTAC | 1.03
29 | GAATCGGTT | 1.02
30 | GAACCCGGGC | 1.01
31 | CGCTCTCACA | 1.09
32 | GTCGGAGAGA | 0.987
33 | GGTCCGTGTG | 1.01
34 | AGCGAGAACG | 1.04
35 | CCAACTAATC | 1.13
36 | GTCTCCAGGA | 1.01
37 | ACGAGCACCA | 1.35
38 | GTTGGTAGAG | 1
39 | AACGGATCCG | 0.965
40 | GTATTGTCAT | 0.979
41 | CCTTATCTCA | 1.03
42 | GGGGAGTCTC | 1.01
43 | AAAAGACTGT | 1
44 | AACCTAATAT | 1.06
45 | ATAACGCTTG | 1.01
46 | AGGATAAAAT | 0.991
47 | AGGATGGGAT | 1.01
48 | CTTAATCTCA | 0.941

Row | Sequence | switch fluorescence ratio
49 | GGACGAGGGT | 1.05
50 | TAACCGCCTA | 1.36
51 | CGCTCGGCGT | 0.985
52 | CTCGTCTCTG | 0.981
53 | AGTCCTCTGT | 0.99
54 | TGGCCTCGGT | 1.01
55 | CAGTTCAAA | 0.967
56 | TTGAGGTAGG | 1.04
57 | GGGTCGGGCA | 1
58 | CAGTCTGGGT | 1.01
59 | ATGGTAGTGT | 1.02
60 | GCTGAATGAC | 1.05
61 | TAACCGAAAT | 1.19
62 | GGGGGCGT | 0.966
63 | AGTGTAGTTT | 0.981
64 | TCGGATACCA | 1.02
65 | CTCCTAGCCA | 1.17
66 | TTTGTCATC | 1.04
67 | GTACGCGGTA | 0.98
68 | AATGCTTACT | 1
69 | CCATACTGTT | 0.931
70 | TCGAGAGGAG | 1.02
71 | TCTCAAGACT | 1.09
72 | AATGACCACG | 1.05

Row | Sequence | switch fluorescence ratio
73 | AAATTAATAC | 1.14
74 | CTCTATATGG | 0.948
75 | GTGTGCGGTT | 0.995
76 | AGCACTATCT | 1.07
77 | ACATCCCGGG | 0.977
78 | GCCCTCGCTA | 1.33
79 | GGTTGGCGCG | 0.991
80 | GCTAAGGGGA | 0.966
81 | GAGATCAAA | 0.971
82 | AATATGGGCT | 1
83 | AAATCCGAA | 1.01
84 | TAACGCGAAG | 1.03
85 | ATCCTTTCCA | 1.03
86 | ATTCTCCAGC | 1.1
87 | ATTTATGAT | 0.96
88 | TACATTCTCG | 1.05
89 | ACCTCTTGAT | 0.984
90 | GCGAATGGCC | 1.1
91 | ATATAGGACG | 1.01
92 | TGAGGCGATG | 1.04
93 | GTCACAGGAG | 1.13
94 | ACATCGATGG | 0.989
95 | TGGACCTCAC | 1.26
96 | TTGACAGGGG | 1.37

Row | Sequence | switch fluorescence ratio
97 | GGCTCAGCGA | 1.86
98 | AGTCTACTAC | 1.09
99 | ACTAGCTGAC | 1.59
100 | TTTAGATTCC | 1.06
101 | TGACGCCGCT | 1.31
102 | TCGGTACCAT | 1
103 | ATTGGCAGTA | 1.03
104 | ATCTTCCCGC | 2.24
105 | AATAATTCAG | 1.01
106 | AGGAGGTAGC | 0.954
107 | AATCTATTTA | 1.01
108 | TTTTGTAAAT | 1.03
109 | CGCTCTCTGT | 1.44
110 | GAATTGTGCA | 1
111 | ACGTTCTAC | 1.26
112 | CAAAGCTTCA | 1.57
113 | AAACGTCCGA | 1.18
114 | TGCCAGGGCA | 1.03
115 | ACTCCTCAGC | 1.93
116 | GCTCGACTAG | 1.03
117 | TTCATCCCTC | 1.06
118 | TATCGCGGGA | 1.03
119 | AGACTGGTCA | 0.958
120 | ACTATGTATG | 0.945

Row | Sequence | switch fluorescence ratio
121 | GCATAGATGT | 1.02
122 | AGGATACTTC | 0.977
123 | CAATCGGGCT | 1
124 | TGTAGCAGTT | 1.3
125 | CATTGACGTG | 0.991
126 | TGATACGGGA | 1.05
127 | ATGGCGGTGA | 0.964
128 | CTGTCTTGGA | 1.02
129 | CTAAAGGGTG | 1.01
130 | TTGCGTAGCT | 1.06
131 | TTATACTACT | 1.1
132 | GGAAAATTGT | 1.03
133 | GCGTAGATGT | 1.01
134 | CCGGGCTTCC | 2.05
135 | TACACTGAGC | 1.06
136 | AGACAGAGA | 1.05
137 | CGTGCCTGTC | 0.984
138 | TGTCAGCAGC | 1.07
139 | CCACGTCTTT | 1.01
140 | ACCAACTCGG | 1.07
141 | TCATTACCCT | 1.07
142 | GAATCTACCG | 1

Test system: ATP
Assay: switch fluorescence ratio, 500 uM ATP over buffer (Cy3 cluster intensity, sum of 5 cycles each) (fold (ratio)); higher = stronger signal-on switching upon ATP binding
Settings: aptamer strand: ATP DNA aptamer (quencher-CACCTGGGGGAGTATTGCGGAGGAAGG + anchor), 100 nM annealed; ATP concentration: 500 uM; one replicate
Procedure, shortened: as §1

Row | Sequence | switch fluorescence ratio
143 | TCGTCGGCAGCGTCAGATGTGTATAAGAGACAGTTTTTTTTTTTTTTTTTTTTTTTTTCCCTC | 0.984
